Assay results reported in PMC4336329 (PLoS ONE, 2015).
Hit rate of the full screen: of about 310,000 compounds, about 2,200 (0.71%) showed an effect of 50% or more. The effect is printed as a negative number. This is one part of the list.

Each molecule was assayed against human ether-à-go-go-related gene (hERG) potassium channel (human, UniProt Q12809) (assay: primary screen, population patch clamp on CHO cells stably expressing hERG).
Chain of human ether-à-go-go-related gene (hERG) potassium channel (Q12809 whole entry, looked up): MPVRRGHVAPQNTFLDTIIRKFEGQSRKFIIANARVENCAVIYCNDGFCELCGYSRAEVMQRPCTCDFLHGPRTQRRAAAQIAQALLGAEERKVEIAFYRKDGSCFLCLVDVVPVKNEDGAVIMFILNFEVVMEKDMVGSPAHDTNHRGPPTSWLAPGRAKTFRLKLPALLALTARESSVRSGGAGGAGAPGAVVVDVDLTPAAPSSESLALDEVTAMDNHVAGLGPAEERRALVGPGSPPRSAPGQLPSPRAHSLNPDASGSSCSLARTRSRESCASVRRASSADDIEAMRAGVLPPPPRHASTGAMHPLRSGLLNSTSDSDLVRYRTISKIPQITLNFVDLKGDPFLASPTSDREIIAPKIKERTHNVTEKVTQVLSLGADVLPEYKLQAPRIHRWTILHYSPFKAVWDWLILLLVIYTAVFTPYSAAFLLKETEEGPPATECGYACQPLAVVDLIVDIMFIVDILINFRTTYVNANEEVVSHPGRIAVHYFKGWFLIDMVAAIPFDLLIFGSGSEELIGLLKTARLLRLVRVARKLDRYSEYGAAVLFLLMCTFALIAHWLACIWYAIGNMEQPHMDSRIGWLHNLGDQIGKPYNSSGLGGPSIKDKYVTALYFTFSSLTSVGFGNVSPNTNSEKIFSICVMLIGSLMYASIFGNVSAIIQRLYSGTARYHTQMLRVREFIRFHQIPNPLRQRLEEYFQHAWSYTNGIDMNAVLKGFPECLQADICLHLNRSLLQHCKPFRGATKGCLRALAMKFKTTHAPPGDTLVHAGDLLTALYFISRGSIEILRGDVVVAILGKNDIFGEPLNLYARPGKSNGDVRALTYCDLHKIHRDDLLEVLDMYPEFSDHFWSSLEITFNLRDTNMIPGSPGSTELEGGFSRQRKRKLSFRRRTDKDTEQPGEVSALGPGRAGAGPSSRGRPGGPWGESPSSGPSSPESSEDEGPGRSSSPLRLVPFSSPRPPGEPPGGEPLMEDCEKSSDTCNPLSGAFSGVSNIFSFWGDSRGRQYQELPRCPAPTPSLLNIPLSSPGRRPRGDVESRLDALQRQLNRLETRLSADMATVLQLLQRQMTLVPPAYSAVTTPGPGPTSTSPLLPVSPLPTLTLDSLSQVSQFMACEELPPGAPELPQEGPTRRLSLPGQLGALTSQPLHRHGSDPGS

SMILES | hERG current change (%, negative = inhibition) at 1uM
CCOc1ccc(N=Cc2c(O)cc(C)oc2=O)cc1 | 8.98%
Cc1ccc(C(NC(=O)NN2CCN(C)CC2)C(Cl)Cl)cc1F (stereo not drawn) | 10%
CC(=O)OC1COC(n2c(O)c(N=NC(N)=S)c3ccccc32)C(OC(C)=O)C1OC(C)=O (stereo not drawn) | 16.7%
O=C(Oc1ccc(Br)cc1)c1n[nH]c(=O)c2ccccc12 | 1.13%
CCOC(=O)c1c(-c2ccc(OC)cc2)csc1/N=C/N(C)C | 7.88%
Cc1oncc1-c1cn2ccccc2n1 | 6.93%
NS(=O)(=O)c1ccc2nc(NC(=O)c3ccc(Br)o3)sc2c1 | 6.62%
COc1cc(/C=C2/SC(=S)N(Cc3ccccc3)C2=O)cc(OC)c1O | 10.7%
Cc1ccnc(-n2c(C)nc3ccccc3c2=O)c1 | 9.28%
CSc1ccc(/C=C/C(=O)c2ccc(NC(=O)C(C)C)cc2)cc1 | 3.02%
O=C(CCS(=O)(=O)c1ccccc1)Nc1nc(-c2cccs2)cs1 | -3.34%
CCCC(=O)C1=C(O)C(C(=O)OC)C(C)(C)CC1=NC(C)(C)C (stereo not drawn) | 3.44%
COc1ccc(OC)c(Nc2nc3ccccc3n3cnnc23)c1 | 7.2%
Cc1ccc(C2(CC(=O)N3CCCC3)CCOC(C(C)C)C2)cc1 (stereo not drawn) | 2.04%
CC1=C(C(=O)OC(C)C)C(c2cccs2)NC(=S)N1 (stereo not drawn) | 5.54%
COc1cccc(NC(=O)Cn2c(=O)oc3cc(S(=O)(=O)N4CCCC4)ccc32)c1 | 11.7%
CC(=O)Nc1ccc(OCC(O)CN2CCN(c3ccc(F)cc3)CC2)cc1 (stereo not drawn) | -0.53%
COc1ccc(CC(=O)OCC(=O)N2CCCC(C)C2)cc1 (stereo not drawn) | 16.6%
CC1=CC(=C2C(=O)c3ccccc3C2=O)C=C(C)N1C | 5.54%
C/C=C\C=C/C(=O)Nc1cccc(C2=NOC3(C2)C[C@@H](C(N)=O)N(C(=O)[C@H]2CCC(=O)N2)C3)c1 (stereo partly drawn) | 15%
O=C1c2ccccc2NC(c2ccc(-c3ccc(Br)cc3)o2)N1O (stereo not drawn) | -7.19%
CCOC(=O)C1=C(COC(=O)c2cccs2)NC(=O)NC1C (stereo not drawn) | 14.1%
Cc1cccc(N2C(=O)CC(N3CCN(Cc4ccc5c(c4)OCO5)CC3)C2=O)c1 (stereo not drawn) | 1.76%

SMILES | hERG current change (%, negative = inhibition) at 1uM
c1ccc2c(c1)C(=NC1CCCCC1)NC2=NC1CCCCC1 | 2.62%
Fc1ccc(OCc2nn3cnnc3s2)cc1 | 7.16%
CNC(=O)CSc1nnc(-c2cccc(S(=O)(=O)N3CCOCC3)c2)n1-c1ccc(F)cc1 | 11.4%
c1ccc2c(c1)CC(N1CCCCC1)c1ccccc1N2 (stereo not drawn) | -0.156%
CC(O)c1nc2ccccc2n1C/C=C/c1ccccc1 (stereo not drawn) | -3.88%
COc1ccc(C(=O)NC(=S)Nc2ccc(S(=O)(=O)Nc3cc(C)on3)cc2)cc1OC | 11.1%
COc1ccc(Cc2nccc3cc(OC)c(OC)cc23)cc1OC.Cl | 10.8%
Cc1ccc(NC(=O)N(C2=NCC(C)S2)c2ccccc2)cc1 (stereo not drawn) | 10.9%
COC(=O)c1ccc(CNC(=O)C2CCC(=O)N(Cc3cccc(F)c3)C2)cc1 (stereo not drawn) | 7.94%
COc1ccc(NC(=O)c2cc(C)on2)cc1OC | -0.779%
Cc1nc2ccc(Br)cc2c2c1CC(CO)O2 (stereo not drawn) | 15.9%
CSc1ccc(/C=c2\s/c(=C\C(=O)C(C)(C)C)n(CC(=O)NCCC3=CCCCC3)c2=O)cc1 | -3.41%
O=C(c1ccco1)N1CCN(Cc2cc(=O)oc3cc(O)ccc23)CC1 | -45%
COc1cc(=O)[nH]c(=O)n1CC(=O)c1ccccc1 | 8.76%
O=S(=O)(Cc1ccccc1)N1CCCCC1 | 12.3%
COC(=O)C1=CN(c2cccc(C(F)(F)F)c2)C=C(C(=O)OC)C1c1ccc(O)c(OC)c1 | 9.11%
COc1cc(C(=O)NC(=S)Nc2ccc([N+](=O)[O-])cc2)cc(OC)c1OC | 7.73%
Cc1cc(C)n(-c2nc3ccccc3s2)n1 | -2.02%
COc1ccccc1C(=O)NC(=O)COC(=O)c1cccc(C)c1O | 21.3%
CCCCC(=O)Nc1ncc([N+](=O)[O-])s1 | 1.72%
O=[N+]([O-])c1cc(C(F)(F)F)ccc1Oc1cccnc1[N+](=O)[O-] | -7.56%
C=CCOC(=O)C1=C[C@H](c2coc3ccccc3c2=O)C[C@H](OCc2ccc(CO)cc2)O1 | -13.2%
